Reference: the supplement of paper PMC3334620
In all, about 33,000 sequences were measured (“E-score (-0.5 to 0.5)”: median about -0.053, highest 2% from about 0.37 on). Some of the results follow.

target: Hap1 (UniProt P0CE41); experiment: PBM E-score (8-mer binding enrichment) (E-score (-0.5 to 0.5)); higher = stronger / more preferred TF binding; most listed sequences are background and not binding sites; settings: protein concentration: 200 nM; construct: GST-DNA-binding domain
How it was run: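 The E-score, a modified Wilcoxon-Mann-Whitney statistic, was computed by the Universal PBM Analysis Suite for every ungapped eight-base word pooled with its reverse complement. Scans behind it were normalised with masliner after bound GST-tagged yeast transcription factors were detected with fluorescent anti-GST. The proteins, at about 100-200 nM, had been applied to universal all-10-mer Agilent arrays made double-stranded by primer extension.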

Chain of UniProt P0CE41 (P0CE41 whole entry, the tested form may be a part): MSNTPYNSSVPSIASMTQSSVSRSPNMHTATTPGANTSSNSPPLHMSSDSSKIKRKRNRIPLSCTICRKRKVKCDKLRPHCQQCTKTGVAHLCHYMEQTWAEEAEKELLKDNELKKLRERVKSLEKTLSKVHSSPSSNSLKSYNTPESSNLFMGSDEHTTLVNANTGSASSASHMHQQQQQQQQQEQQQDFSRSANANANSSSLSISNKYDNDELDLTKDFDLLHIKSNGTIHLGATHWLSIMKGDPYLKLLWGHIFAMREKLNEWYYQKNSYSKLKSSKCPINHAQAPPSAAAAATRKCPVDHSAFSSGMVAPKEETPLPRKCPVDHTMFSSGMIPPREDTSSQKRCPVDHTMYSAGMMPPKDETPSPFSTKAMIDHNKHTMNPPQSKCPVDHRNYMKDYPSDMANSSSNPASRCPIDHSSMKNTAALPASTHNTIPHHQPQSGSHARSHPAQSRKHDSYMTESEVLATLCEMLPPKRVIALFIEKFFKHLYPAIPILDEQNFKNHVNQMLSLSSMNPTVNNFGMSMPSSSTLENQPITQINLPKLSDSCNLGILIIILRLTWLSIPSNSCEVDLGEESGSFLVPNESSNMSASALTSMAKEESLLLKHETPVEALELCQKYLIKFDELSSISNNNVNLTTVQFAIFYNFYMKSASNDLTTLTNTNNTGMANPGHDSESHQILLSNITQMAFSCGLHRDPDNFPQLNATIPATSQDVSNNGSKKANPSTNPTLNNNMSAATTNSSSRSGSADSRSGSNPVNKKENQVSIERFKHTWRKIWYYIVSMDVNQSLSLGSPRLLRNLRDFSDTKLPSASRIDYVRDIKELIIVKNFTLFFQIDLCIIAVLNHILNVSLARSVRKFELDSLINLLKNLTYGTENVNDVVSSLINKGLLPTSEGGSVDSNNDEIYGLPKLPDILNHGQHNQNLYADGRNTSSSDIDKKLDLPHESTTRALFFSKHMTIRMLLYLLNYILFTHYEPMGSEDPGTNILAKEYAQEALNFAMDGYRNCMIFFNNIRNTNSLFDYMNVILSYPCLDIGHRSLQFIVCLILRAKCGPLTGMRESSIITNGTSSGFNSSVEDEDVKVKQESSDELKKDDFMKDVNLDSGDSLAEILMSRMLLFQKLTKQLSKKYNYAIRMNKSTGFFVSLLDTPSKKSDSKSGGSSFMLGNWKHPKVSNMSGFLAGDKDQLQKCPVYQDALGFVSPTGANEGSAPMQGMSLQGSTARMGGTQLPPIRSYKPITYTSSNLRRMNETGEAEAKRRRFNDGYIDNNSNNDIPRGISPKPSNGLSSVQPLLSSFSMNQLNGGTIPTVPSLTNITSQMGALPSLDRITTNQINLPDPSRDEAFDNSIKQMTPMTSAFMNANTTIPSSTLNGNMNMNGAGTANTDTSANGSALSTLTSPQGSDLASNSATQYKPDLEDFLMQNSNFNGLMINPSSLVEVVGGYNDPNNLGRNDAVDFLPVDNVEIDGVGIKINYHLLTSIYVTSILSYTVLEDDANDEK

| Sequence | PBM E-score |
| --- | --- |
| TACCTCGA | -0.168 |
| CAGTAACG | -0.0765 |
| TCCCATAA | -0.253 |
| AACACAGT | -0.165 |
| CCACTTAA | -0.00639 |
| ACAGTTGC | -0.156 |
| ATTTACCA | 0.0182 |
| CCGCTTCC | 0.189 |
| AGGTGCTC | -0.269 |
| AAGAGATC | -0.128 |
| CATCTACG | -0.00563 |
| AGCCCCAC | 0.0459 |
| AAACTCGC | -0.015 |
| CGGTAATC | 0.327 |
| CTATCCTA | -0.0367 |
| ATGGTTAG | -0.00971 |
| CTCCACAC | -0.21 |
| GCAAATCC | 0.192 |
| AGCATCCA | -0.168 |
| CTGCAAAG | -0.243 |
| GGGGAGCA | 0.0129 |
| AACCGGAG | 0.425 |
| GCCGCCAC | -0.0674 |
| CTGCTTAA | -0.0757 |
| CCAGTTAG | -0.31 |

| Sequence | PBM E-score |
| --- | --- |
| CTGCCCAG | -0.0165 |
| CAGCTAAG | -0.304 |
| CTGAAGTA | -0.157 |
| ACAACGTG | -0.24 |
| GGCTAGAC | 0.039 |
| CGGCAACG | 0.236 |
| CCATTGCA | -0.258 |
| CCGTAGCC | 0.0489 |
| ACTTACTG | -0.0636 |
| CTCGAACA | -0.215 |
| CAATTGAC | -0.0709 |
| AGTTCTAC | -0.371 |
| ACCGACCG | 0.314 |
| CCACCGCC | -0.0239 |
| ATTTGGCA | -0.18 |
| GAGACTCA | -0.141 |
| GCCTGTTA | -0.172 |
| AGATGAAG | -0.0989 |
| GGCAACCA | -0.0667 |
| ACTCATGG | -0.149 |
| AGGGGCTG | -0.193 |
| ATTTCTTC | 0.0687 |
| CTGTACGC | -0.0906 |
| GCCGAAAA | 0.345 |
| AGTCAACT | -0.365 |

| Sequence | PBM E-score |
| --- | --- |
| CTAGTGCA | 0.00582 |
| ACAAATTC | 0.0612 |
| CAATCGGC | 0.138 |
| CCAAGCTC | -0.0808 |
| CACAATAA | -0.225 |
| CAGTATTC | -0.0399 |
| TGTGCCAA | -0.158 |
| GCCAAACA | -0.0236 |
| GCCGCACC | 0.237 |
| CCTGACAG | -0.149 |
| GCTCGGCC | 0.375 |
| GCAAAGCA | -0.136 |
| CTATCGAC | -0.00833 |
| AGGGCTCA | -0.274 |
| ACAGTACT | -0.105 |
| CTCCCGTC | 0.136 |
| AATCGGGA | 0.159 |
| AAGCTTGT | -0.0185 |
| GCCGTCAA | -0.0328 |
| CGAGCTTA | 0.106 |
| CCTGATCC | 0.0524 |
| AGCGACAA | -0.227 |
| AAGGTTTG | -0.0647 |
| CTTCTGCC | -0.0164 |
| GTTTGGCA | -0.126 |

| Sequence | PBM E-score |
| --- | --- |
| TATGGCAA | -0.122 |
| CCTATCTC | 0.169 |
| CTGGAGCA | -0.163 |
| GACGGCTC | -0.00803 |
| AAATACCC | 0.189 |
| ATGCCTGC | -0.0759 |
| CTACGTAA | -0.0964 |
| ATGGAGGC | -0.136 |
| CATACAGA | -0.208 |
| AAGTTCGA | 0.0368 |
| CGTGTCCA | -0.162 |
| AGAACCTG | -0.205 |
| ATGTCGTA | -0.278 |
| GATTAAAC | 0.231 |
| TAACGATA | -0.0672 |
| ACCAAGTG | -0.239 |
| AGGGCGGA | 0.17 |
| AGGGACTC | -0.11 |
| TGATCGAA | -0.0835 |
| GTCGGCGA | 0.218 |
| CAGCTCAG | -0.183 |
| AATGGTGT | -0.0527 |
| ATATTTCC | 0.427 |
| CCTGTCCC | -0.0962 |
| TATGCCGA | 0.313 |

| Sequence | PBM E-score |
| --- | --- |
| CGCTCCAC | -0.0525 |
| CATTTTAG | 0.137 |
| ACAGCCTC | -0.234 |
| TCTTTACA | -0.0952 |
| TAGAGCAA | -0.296 |
| ATTCGAAG | -0.149 |
| AGCTAAAA | -0.0324 |
| ATGGCATG | -0.0873 |
| GGTCGAAA | 0.117 |
| GACCCTAC | 0.105 |
| AGGGCCTC | -0.0802 |
| CGCGGTAA | 0.311 |
| AAGGCTGT | -0.102 |
| GGTACTCA | -0.177 |
| ATAGCGAT | -0.102 |
| CCCTTCAC | -0.265 |
| GGTTCGTA | 0.0156 |
| CTGCCGTA | -0.193 |
| GCACCATA | -0.188 |
| TATCACAA | -0.0889 |
| CTTTTGTC | 0.1 |
| AAACTTCG | 0.0798 |
| AACAGACG | -0.0207 |
| GCAAAGAC | -0.0209 |
| ACATCGGC | 0.298 |

| Sequence | PBM E-score |
| --- | --- |
| GCATTCAC | 0.115 |
| ACAATAGT | -0.0759 |
| AAGAATAA | -0.256 |
| GTCGTATA | -0.0879 |
| AAGGAGCT | -0.166 |
| CTACATGC | -0.161 |
| ACTTGGAA | -0.215 |
| ATCTGGCA | -0.153 |
| CCAGACGA | -0.0873 |
| ACGGCAAG | -0.00661 |
| AATGCCAC | -0.092 |
| AACTCAAG | -0.212 |
| AGTTGGTA | -0.181 |
| GCGACCCC | 0.0909 |
| ACTTGGCG | -0.135 |
| CGAAAGCG | -0.00421 |
| AATGGAAC | 0.00471 |
| AAGAATAG | -0.171 |
| ACCAGAGC | -0.00361 |
| GGGACATA | 0.0939 |
| CCTTGTCG | -0.241 |
| ATCTCATG | -0.201 |
| AGGGCTCC | -0.192 |
| CAGATCTG | -0.17 |
| AATTAAGT | 0.0567 |

| Sequence | PBM E-score |
| --- | --- |
| CGACAAAC | -0.0074 |
| AATTCAGA | -0.118 |
| CGTCGTAC | -0.0489 |
| ACTGGAGC | 0.00473 |
| GGCACGAA | -0.0657 |
| CAAAAGCG | 0.0304 |
| ACAAAACT | -0.132 |
| GGAATTCA | 0.0418 |
| CACGGGGG | 0.109 |
| TGACCTCA | -0.226 |
| CTTGGCAA | -0.293 |
| CAATGCTG | -0.128 |
| GGAGTACA | 0.017 |
| CCAAAAGG | -0.269 |
| GTTGATCA | -0.132 |
| GAATAGAC | -0.138 |
| GTGGGTGA | 0.0464 |
| GAAACCGA | 0.274 |
| ACTGATGA | -0.338 |
| CCTCAATC | 0.0231 |
| ACATAATA | -0.0217 |
| AATCTAGG | -0.128 |
